Test results: PubChem BioAssay AID449756 (Broad Institute, 2010)
Over roughly 2,300 compounds, “protection from cell death (ATP increase)” has its median near -18; the highest 2% begin near 170. This is one part of the list. Potency and affinity values are given separately. Entries without a call are filed as inconclusive in the source.

Test: INS-1E survival protection against cytokine death – cell-based, luminescence, retest, dose response (AID 449756)
Conditions: INS-1E rat beta cells, cytokine apoptosis rescue, ATP luminescence 48 h; at 26 µM (top of the series) unless noted

In order of falling protection from cell death (ATP increase):
1. O=C(NCCOc1cccnc1)c1ccc(OC2CCN(Cc3ccccn3)CC2)cc1  167%
2. O=C(CCCCCCCCCCC(=O)NCc1cccnc1)NCc1cccnc1  165%
3. COc1ccccc1-[n+]1c(C)cc(/C=C2\Sc3ccccc3N2C)cc1C  164%
4. O=C(NCc1cccnc1)c1ccc(NC(=O)c2ccc(Br)cc2)cc1  164%
5. COc1ccc(-[n+]2c(C)cc(/C=C3\Sc4ccccc4N3C)cc2C)cc1  162%
6. CCN1/C(=C/C(C)=C/c2sc3ccccc3[n+]2CC)Sc2ccccc21  160%
7. O=C(CCC1CCCC1)Nc1ccc(C(=O)NCc2cccnc2)cc1  158%
8. CCCCCCCCCCn1c2c(c(=N)c3c1CCC3)CCC2  156%
9. CC(C)(C)c1ccc(C(=O)Nc2ccc(C(=O)NCc3cccnc3)cc2)cc1  154%
10. CCCCCCCCCn1c2c(c(=N)c3c1CCC3)CCC2  150%
11. CCN1/C(=C/C=C/c2sc3ccccc3[n+]2CC)Sc2ccccc21  150%
12. O=C(NCc1cccnc1)c1ccc(NC(=O)c2cccc([N+](=O)[O-])c2)cc1  149%
13. C=CC[n+]1c(/C=C2\C=Cc3cc(C)ccc3N2CC)ccc2ccccc21  142%
14. COc1ccc(/C=N/N2CCN(Cc3ccccc3)CC2)cc1  -0.449%
15. c1cc(-c2noc(CC3CCCCC3)n2)ccn1  -18.3%
16. Cc1cccnc1CCNCc1c(C(=O)N2C[C@@H](C)O[C@@H](C)C2)nc2ccc(Cl)cn12  -24.4%
17. Cc1cc(N2CCOCC2)nc(N)n1  -25.8%
18. COc1ccc(C(=O)CSc2n[nH]c(=O)n2Cc2ccco2)cc1  -26.1%
19. Cc1cc(C)cc(OCCCn2ccnc2)c1  -26.9%
20. CCCC1(c2ccccc2)NC(=O)N(CC(=O)Nc2cc(C)ccc2OC)C1=O (stereo unspecified)  -27.1%
21. COc1ccc(N2CC(C(=O)N3CCN(c4ccccc4F)CC3)CC2=O)cc1 (stereo unspecified)  -28%
22. Cc1cccc(C)c1NC(=O)CNC(=O)c1c(C)nn(C)c1Cl  -41.5%
23. O=C(CCCCC(=O)Nc1ccc(F)cc1F)Nc1ccc(F)cc1F  -41.8%
24. COc1ccc(S(=O)(=O)N2CCNCC2)cc1OC  -42.8%
25. CCN(CC)C(=O)C1CCCN(C(=S)Nc2cccc3ccccc23)C1 (stereo unspecified)  -45.6%
26. CC(=O)SC1CC(=O)N(c2c(C)cccc2C)C1=O (stereo unspecified)  -60.2%

In order of falling protection from cell death (ATP increase):
1. CCN1CCN(Cc2ccc(NC(=O)c3ccc(C)c(NC(=O)C(=O)c4c[nH]c5ccccc45)c3)cc2C(F)(F)F)CC1  -18.8% [at 12 µM]
2. Cc1ccc(NC(=O)c2ccc([N+](=O)[O-])o2)cc1S(=O)(=O)N1CCOCC1  -23.4% [at 12 µM]
3. CC(C(c1cccs1)c1c(N)n(C)c(=O)n(C)c1=O)[N+](=O)[O-] (stereo unspecified)  -48.7% [at 12 µM]
4. O=c1c(Cl)c(Cl)cnn1Cc1ccc(F)cc1  -70.5% [at 12 µM]

For COc1ccc(C(C(=O)NC2CCCCC2)N(C(=O)CCl)c2cccc(Cl)c2)cc1 (stereo unspecified), the protection from cell death (ATP increase) was -108% [at 6 µM].
